According to PubChem BioAssay AID1745845 (National Center for Advancing Translational Sciences (NCATS), 2022):
Screen size: about 360,000 compounds; about 2,600 (0.72%) were called active. The inconclusive results got no clear call from the source; some entries with a clear call stand among them for comparison. Calls follow the shape of the dose curve; as a rule, active = well fitted inhibition curve with a large enough effect; inconclusive = small, poorly fitted or top-dose-only effect; inactive = no such curve, though single readings can be large or run the other way. A potency beside an inconclusive call is a rough fit, not a confirmed value.

Test: Primary qHTS for Inhibitors of ATXN expression; also: nearly all actives have a fitted effect of over 55% in size
Details: HEK-293 ATXN2-luciferase reporter, luminescence, 24 h; activity change, negative = inhibition: at 57 µM (top of the series)
Procedure, shortened: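 ATXN2-luciferase reporter cells (luciferase flanked by upstream and downstream ATXN2 gene portions) were treated 24 h at 37 °C with compounds at up to 57 uM. SteadyGlo luminescence gave expression; GF-AFC fluorescence gave viability.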
% is scaled to controls: 0 for no effect and ±100 for the full control effect; potency is read from the fitted curve at half-maximal effect; tags tell the direction and shape of the fitted curve.

**Q.** For C[C@H](CO)N1C[C@H](C)[C@@H](CN(C)S(=O)(=O)c2cn(C)cn2)Oc2ccc(NC(=O)Nc3ccccc3)cc2C1=O, which Potency is on record?
**A.** Its Potency is “inactive”.

**Q.** Which Potency does the source give for O=C(Nc1ccc(N2CCN(C(=O)c3ccco3)CC2)c(Cl)c1)c1cc2ccccc2o1 here?
**A.** The Potency was active: 20 µM.

**Q.** For Cc1ccc(Cn2c(-c3ccccc3)nc3ccccc32)cc1, which Potency is on record?
**A.** The Potency was “inactive”.

**Q.** Which Potency does the source give for Nc1nc(NCCCN2CCOCC2)nc(Nc2cccc(Cl)c2)c1[N+](=O)[O-] here?
**A.** The Potency was inconclusive: 22.4 µM [inhibitor, partial curve, poor fit].

**Q.** For CCOC(=O)/C(C(N)=NCCO)=C(/O)c1ccccc1, which Potency is on record?
**A.** Its Potency is “inactive”.

**Q.** Which activity change, negative = inhibition does the source give for Oc1ccc(Nc2ccnc3cc(Cl)ccc23)cc1 here?
**A.** The activity change, negative = inhibition was inconclusive: -41% [inhibitor].

**Q.** For Cc1cccc(C2CC(c3ccccc3)=NN2c2ccc(S(N)(=O)=O)cc2)c1 (stereo unspecified), which Potency is on record?
**A.** The Potency was inconclusive: 39.8 µM [inhibitor, single point].

**Q.** Which Potency does the source give for O=S1(=O)C=CC(Sc2nc3ccccc3[nH]2)C1 (stereo unspecified) here?
**A.** Its Potency is “inactive”.

**Q.** For COc1ccccc1NC(=O)Cn1nnc(-c2ccccc2NC(=O)c2cnccn2)n1, which Potency is on record?
**A.** The Potency was inconclusive: 0.947 µM [inhibitor, partial curve, poor fit].

**Q.** Which Potency does the source give for N/C(=N\OC(=O)c1ccccc1[N+](=O)[O-])c1ccccn1 here?
**A.** The Potency was inconclusive: 37.7 µM [inhibitor, single point].

**Q.** With COc1ccc(N(C)C(=O)c2onc3c2CCCC3)cc1 as the compound, how does the Potency read?
**A.** The Potency was “inactive”.

**Q.** Which Potency does the source give for Cc1c(NC(=O)CSc2cccc3cccnc23)c(=O)n(-c2ccccc2)n1C here?
**A.** Its Potency is inconclusive: 28.2 µM [inhibitor, single point].

**Q.** With Cc1ccc2cc(CCNC(=O)c3cccc([N+](=O)[O-])c3)c(=O)[nH]c2c1C as the compound, how does the Potency read?
**A.** The Potency was inconclusive: 21.2 µM [inhibitor, partial curve, poor fit].

**Q.** For COc1cc(C=O)ccc1OCc1cccc(Br)c1, which Potency is on record?
**A.** Its Potency is “inactive”.

**Q.** With Cc1ccc(-n2c(N)c(C(=O)Nc3ccccc3F)sc2=S)cc1C as the compound, how does the Potency read?
**A.** Its Potency is “inactive”.

**Q.** With Cc1ccccc1-c1ccc(CN2C(C(C)C)C(=O)N(Cc3cn(CCC4OCCO4)nn3)CCS2(=O)=O)cc1 (stereo unspecified) as the compound, how does the Potency read?
**A.** The Potency was inconclusive: 31.6 µM [inhibitor, single point].

**Q.** For Cc1cc(C(=O)N/N=C/c2cc(Br)cc([N+](=O)[O-])c2O)c2ccccc2n1, which Potency is on record?
**A.** The Potency was inconclusive: 25.1 µM [inhibitor, single point].

**Q.** Which Potency does the source give for COc1ccc2nc(C)cc(Nc3ccc(C)cc3)c2c1 here?
**A.** Its Potency is “inactive”.

**Q.** Which Potency does the source give for O=C1N[C@@H](c2ccccc2)COC(=O)[C@H](Cc2ccc(F)cc2)CC/C=C/C[C@H]1CC(=O)N(CCO)Cc1ccccc1 here?
**A.** Its Potency is inconclusive: 39.8 µM [inhibitor, single point].

**Q.** With CCCc1nnc(SCC(=O)N2CCCCC2)n1CCCOC as the compound, how does the Potency read?
**A.** The Potency was inconclusive: 35.5 µM [inhibitor, partial curve, poor fit].

**Q.** With O=C(Nc1cccc(C(F)(F)F)c1)C1CCCN1S(=O)(=O)c1cccc2cccnc12 (stereo unspecified) as the compound, how does the Potency read?
**A.** Its Potency is inconclusive: 11.2 µM [inhibitor, partial curve, poor fit].

**Q.** With CCCC(=O)OCCNc1cc(Sc2nccn2C)c2nonc2c1[N+](=O)[O-] as the compound, how does the Potency read?
**A.** Its Potency is active: 20 µM.

**Q.** Which Potency does the source give for CCOc1ccc(NS(=O)(=O)c2ccc3[nH]c4c(c3c2)CCCC4)cc1 here?
**A.** Its Potency is inconclusive: 39.8 µM [inhibitor, single point].

**Q.** Which Potency does the source give for CC(C)c1ccc(S(=O)(=O)/N=C2/C=C(Sc3ncn[nH]3)C(=O)c3ccccc32)cc1 here?
**A.** The Potency was active: 14.1 µM.

**Q.** With CO[C@H]1CC[C@@]2(C)[C@@H](CC[C@@H]3[C@@H]2CC[C@@]2(C)[C@H]3C[C@H](C(=O)O)O[C@]23CCCO3)C1 as the compound, how does the Potency read?
**A.** The Potency was “inactive”.

**Q.** Which Potency does the source give for C[N+](C)([O-])CCNc1ccc(NCC[N+](C)(C)[O-])c2c1C(=O)c1c(O)ccc(O)c1C2=O here?
**A.** The Potency was inconclusive: 30.6 µM [inhibitor, partial curve].

**Q.** With CCN(CC)CCn1c(NCc2nc3ccccc3n2Cc2ccccc2)nc2ccccc21 as the compound, how does the Potency read?
**A.** Its Potency is inconclusive: 31.6 µM [inhibitor, single point].

**Q.** Which Potency does the source give for C[C@@H]1CCCCO[C@@H](CN(C)C(=O)C2CCCCC2)[C@@H](C)CN([C@H](C)CO)C(=O)c2cc(NC(=O)NC3CCCCC3)ccc2O1 here?
**A.** The Potency was inconclusive: 35.5 µM [inhibitor, single point].

**Q.** For COc1ccc(S(=O)(=O)N(C)C)cc1NC(=O)C1CCN(c2ncnc3sc(C)c(C)c23)CC1, which Potency is on record?
**A.** The Potency was inconclusive: 35.5 µM [inhibitor, single point].

**Q.** For O=C(C1=C[C@@H](C2CCCCC2)C[C@@H](OCc2ccc(CO)cc2)O1)N1CCN(Cc2ccc3c(c2)OCO3)CC1, which Potency is on record?
**A.** The Potency was inconclusive: 39.8 µM [inhibitor, single point].

**Q.** With Clc1ccccc1-c1ccc2ncnc(NCc3cccs3)c2c1 as the compound, how does the Potency read?
**A.** The Potency was inconclusive: 31.6 µM [inhibitor, single point].

**Q.** For CC(=O)c1cccc(NC(=O)C2Cc3c(-c4cccc(C(C)=O)c4)ccnc3O2)c1 (stereo unspecified), which Potency is on record?
**A.** The Potency was inconclusive: 39.8 µM [inhibitor, single point].

**Q.** With COc1ccc(NC(=O)Cn2nnc(-c3ccccc3NC(=O)c3ccco3)n2)cc1 as the compound, how does the Potency read?
**A.** The Potency was inconclusive: 14.1 µM [inhibitor, partial curve].

**Q.** With COc1ccc(OC)c(CNC(=O)c2[nH]c(C(F)(F)F)nc2-c2ccccc2)c1 as the compound, how does the Potency read?
**A.** Its Potency is inconclusive: 4.47 µM [inhibitor, partial curve, poor fit].

**Q.** With COc1ccc(-c2ccc(C(=O)Nc3cc(OC)c(OC)c(OC)c3)c3occc23)c(C)c1 as the compound, how does the Potency read?
**A.** The Potency was inconclusive: 35.5 µM [inhibitor, single point].

**Q.** For COc1ccc(C(c2nnnn2Cc2ccc(F)cc2)N2CCN(c3ccccc3)CC2)cc1 (stereo unspecified), which Potency is on record?
**A.** Its Potency is “inactive”.

**Q.** Which Potency does the source give for Cc1cnn(-c2cc(N/N=C/c3cccc(F)c3)ncn2)c1 here?
**A.** The Potency was inconclusive: 39.8 µM [inhibitor, single point].

**Q.** Which Potency does the source give for CNC(=S)N1N=C(c2ccc(Br)cc2)CC1c1ccc(OC)cc1 (stereo unspecified) here?
**A.** The Potency was “inactive”.

**Q.** With COc1cc(O)c(C(CCN2CCCCC2)c2ccc3c(c2)OCO3)c(OC)c1 (stereo unspecified) as the compound, how does the Potency read?
**A.** The Potency was inconclusive: 35.5 µM [inhibitor, partial curve, poor fit].

**Q.** With COC(=O)c1sc(NC(=O)c2ccc(OC)cc2OC)nc1C as the compound, how does the Potency read?
**A.** The Potency was active: 2.24 µM.

**Q.** For COc1cccc(CN(C(=O)/C=C/c2ccc(Cl)cc2)C2CCS(=O)(=O)C2)c1 (stereo unspecified), which Potency is on record?
**A.** The Potency was “inactive”.
